Results published in a collection of fitness landscapes (doi:10.1126/science.1257360).
The list shows a part of the results.

B1: PhoQ; a variant is named by its letters at X, in order, P23837 (parent)
chain: MKKLLRLFFPLSLRVRFLLATAAVVLVLSLAYGMVALIGYSVSFDKTTFRLLRGESNLFYTLAKWENNKLHVELPENIDKQSPTMTLIYDENGQLLWAQRDVPWLMKMIQPDWLKSNGFHEIEADVNDTSLLLSGDHSIQQQLQEVREDDDDAEMTHSVAVNVYPATSRMPKLTIVVVDTIPVELKSSYMVWSWFIYVLSANLLLVIPLLWVAAWWSLRPIEALAKEVRELEEHNRELLNPATTRELTSLVRNLNRLLKSERERYDKYRTTLTDLTHSLKTPLXXLQXXLRSLRSEKMSVSDAEPVMLEQISRISQQIGYYLHRASMRGGTLLSRELHPVAPLLDNLTSALNKVYQRKGVNISLDISPEISFVGEQNDFVEVMGNVLDNACKYCLEFVEISARQTDEHLYIVVEDDGPGIPLSKREVIFDRGQRVDTLRPGQGVGLAVAREITEQYEGKIVAGESMLGGARMEVIFGRQHSAPKDE

Variants of: B1
Test: enrichment ratio after two sorts for PhoP signalling (ratio (wild type AVST 3.29)); higher = more functional
Settings: with PhoP (E. coli)

Variant | enrichment ratio
RFHQ | ≤ 0.25
MYRT | ≤ 0.25
RPHC | ≤ 0.25
NNYA | ≤ 0.25
MGSP | ≤ 0.25
HCYQ | ≤ 0.25
MMTM | 10.9
MEFR | 2.74
EIFC | ≤ 0.25
QQYT | ≤ 0.25
TLLV | 1.16
ESWD | ≤ 0.25
KMEN | ≤ 0.25
FEWM | ≤ 0.25
LLDT | ≤ 0.25
NEWL | 0.808
PMRS | ≤ 0.25
VLRM | ≤ 0.25
EHKT | ≤ 0.25
WGMP | ≤ 0.25
VHRF | ≤ 0.25
FEPR | ≤ 0.25
HQQF | ≤ 0.25
TEPY | ≤ 0.25
TSRS | ≤ 0.25

Variant | enrichment ratio
KKVF | 4.44
RTRY | ≤ 0.25
SQDL | ≤ 0.25
SPTG | ≤ 0.25
IKEL | ≤ 0.25
SPSH | ≤ 0.25
WVLY | ≤ 0.25
SDAQ | ≤ 0.25
TIAP | ≤ 0.25
NMAR | ≤ 0.25
IWIT | ≤ 0.25
SVCI | 10.4
VKMN | ≤ 0.25
NMVK | ≤ 0.25
AMMG | ≤ 0.25
FMGY | ≤ 0.25
IGLH | 0.557
VAPF | ≤ 0.25
DKTH | ≤ 0.25
MGSS | 0.306
TPDV | ≤ 0.25
EQFV | ≤ 0.25
RFLW | ≤ 0.25
ICPH | ≤ 0.25
ECRP | ≤ 0.25

Variant | enrichment ratio
EDAP | ≤ 0.25
WPDL | ≤ 0.25
LGMV | 3.91
FRTN | ≤ 0.25
VGQF | ≤ 0.25
YNIN | ≤ 0.25
QSFE | ≤ 0.25
DRIP | ≤ 0.25
SHNW | ≤ 0.25
QHIL | ≤ 0.25
NTQS | ≤ 0.25
QNCA | ≤ 0.25
TKER | ≤ 0.25
TKIC | 4.21
YHVQ | ≤ 0.25
DYNG | ≤ 0.25
VLNK | ≤ 0.25
WNVW | ≤ 0.25
EQYS | ≤ 0.25
RWWK | ≤ 0.25
HWEA | ≤ 0.25
PKVS | ≤ 0.25
ITQC | ≤ 0.25
VGHK | ≤ 0.25
DMSY | ≤ 0.25

Variant | enrichment ratio
FHWA | ≤ 0.25
ENRG | ≤ 0.25
AITR | 7.38
RNLK | ≤ 0.25
LDSM | ≤ 0.25
AFNL | ≤ 0.25
AQLC | 5.23
KKDM | ≤ 0.25
WRKD | ≤ 0.25
EQVM | ≤ 0.25
THCA | 10.9
INDT | ≤ 0.25
HPIK | ≤ 0.25
FATC | ≤ 0.25
FYPY | ≤ 0.25
YACN | ≤ 0.25
LHNS | ≤ 0.25
NHHS | ≤ 0.25
DSHG | ≤ 0.25
VDPY | ≤ 0.25
PTEM | ≤ 0.25
TKFV | 0.925
QIGW | ≤ 0.25
FASR | ≤ 0.25
VKDP | ≤ 0.25

Variant | enrichment ratio
DTNS | ≤ 0.25
RIFH | ≤ 0.25
ILHS | ≤ 0.25
WAIR | ≤ 0.25
EASA | ≤ 0.25
DGWV | ≤ 0.25
HVVH | ≤ 0.25
KCTA | ≤ 0.25
RHIC | 0.278
PRYT | ≤ 0.25
SHIL | ≤ 0.25
HKAS | ≤ 0.25
NYTD | ≤ 0.25
KFDN | ≤ 0.25
GLLA | ≤ 0.25
YTMF | 5.8
YDDC | ≤ 0.25
NHKA | ≤ 0.25
EYND | ≤ 0.25
YLYQ | ≤ 0.25
LENV | ≤ 0.25
SSNK | ≤ 0.25
WMVK | ≤ 0.25
DWPP | ≤ 0.25
YRDM | ≤ 0.25

Variant | enrichment ratio
MGQI | ≤ 0.25
MGIG | ≤ 0.25
RINH | ≤ 0.25
CVSP | ≤ 0.25
FYQF | ≤ 0.25
NYDY | ≤ 0.25
IQWI | ≤ 0.25
WWYS | ≤ 0.25
APHR | ≤ 0.25
YLAP | ≤ 0.25
RKHI | ≤ 0.25
VVLP | ≤ 0.25
DLWL | ≤ 0.25
KARI | ≤ 0.25
DKMA | ≤ 0.25
YSAP | ≤ 0.25
YFMA | ≤ 0.25
TDSR | ≤ 0.25
VCHQ | ≤ 0.25
LQLS | ≤ 0.25
EHVN | ≤ 0.25
NFHF | ≤ 0.25
LIYM | ≤ 0.25
VHFI | ≤ 0.25
MDTT | ≤ 0.25

Variant | enrichment ratio
NRAI | ≤ 0.25
GTLT | 3.12
PKGC | ≤ 0.25
VVGR | ≤ 0.25
MFDK | ≤ 0.25
QRIR | ≤ 0.25
YAHK | ≤ 0.25
TTPN | ≤ 0.25
PEFK | ≤ 0.25
VQQA | ≤ 0.25
ANYP | ≤ 0.25
EEML | ≤ 0.25
MFGD | ≤ 0.25
HYFD | ≤ 0.25
MIWY | ≤ 0.25
WPLT | ≤ 0.25
YFWM | ≤ 0.25
MCHS | ≤ 0.25
TYDI | ≤ 0.25
ASQG | 1.16
VFKQ | ≤ 0.25
FGQP | ≤ 0.25
PGGY | ≤ 0.25
IVKH | ≤ 0.25
NHEM | ≤ 0.25

Variant | enrichment ratio
IRCF | ≤ 0.25
NWMW | ≤ 0.25
SRGC | ≤ 0.25
PIMS | ≤ 0.25
ESAT | ≤ 0.25
HHDM | ≤ 0.25
NQCL | ≤ 0.25
QNLC | ≤ 0.25
HKKC | ≤ 0.25
WPIK | ≤ 0.25
ANLW | 9.25
WAGH | ≤ 0.25
KQLC | ≤ 0.25
MWRD | ≤ 0.25
RDAG | ≤ 0.25
FFIS | ≤ 0.25
TGFN | ≤ 0.25
ETWR | ≤ 0.25
KDSW | ≤ 0.25
TTER | ≤ 0.25
